Laboratory results published in the supplement of paper PMC4466236.
The full ranking holds about 33,000 sequences; the median of “E-score (dimensionless, -0.5 to 0.5)” is about -0.058, and the highest 2% start at about 0.35. The list shows a part of the results.

What follows are sequences tested on MvaT (assay: PBM 8-mer E-score (mean of HK and ME arrays) (E-score (dimensionless, -0.5 to 0.5)); higher = stronger relative binding preference; most listed sequences are background and not binding sites).
Procedure, shortened: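 Full-length P. aeruginosa MvaT, with glutathione S-transferase fused to its N-terminus (cloned into pTH6838 by isothermal assembly), was tested by protein binding microarray using a previously described protocol. Two universal double-stranded 60-mer arrays (ME and HK) were used, each with a constant 25-mer primer region and a variable 35-mer region covering all 8-mers. The rank-based 8-mer E-score (-0.5 to 0.5) is the mean of the two arrays, parsed with a custom Python script.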

Going from ACCCCCGT to CCTTACGC, the “PBM 8-mer E-score” value rises from -0.319 to -0.151.

Compared with CTCCTCCC, AATTGCTA is higher in “PBM 8-mer E-score” value: -0.316 for the first, 0.232 for the second.

Going from AATTACTA to CATATTAC, the “PBM 8-mer E-score” value falls from 0.323 to 0.294.

Compared with AATGCTGG, AGACTCGC is lower in “PBM 8-mer E-score” value: -0.0685 for the first, -0.134 for the second.

Going from ACGGGGCA to CATACTCC, the “PBM 8-mer E-score” value rises from -0.17 to 0.00539.

Going from AGTTGCTG to AAGATACG, the “PBM 8-mer E-score” value falls from 0.112 to 0.0729.

First: CGCATAAG
Second: GCTGAAAC
The “PBM 8-mer E-score” value of the first is higher: 0.113 for the first, -0.102 for the second.

Compared with ATGAGTCG, GACAGCTA is lower in “PBM 8-mer E-score” value: 0.0116 for the first, -0.122 for the second.

Compared with ATTCTGGG, CCCGCGGA is lower in “PBM 8-mer E-score” value: 0.0485 for the first, -0.176 for the second.

First: AAACCAAG
Second: GGTCGGAA
The “PBM 8-mer E-score” value of the first is higher: 0.1 for the first, -0.223 for the second.

Compared with AGGACGTA, CAGTTTTC is higher in “PBM 8-mer E-score” value: -0.138 for the first, 0.0105 for the second.

Going from AGCCTGAG to AATGTCAA, the “PBM 8-mer E-score” value rises from -0.26 to 0.207.

First: AGACAACC
Second: ATGCACAG
The “PBM 8-mer E-score” value of the first is lower: -0.158 for the first, 0.0355 for the second.

First: AAAACAGG
Second: CAGTCAAC
The “PBM 8-mer E-score” value of the first is lower: 0.0694 for the first, 0.0726 for the second.

First: ACATAAAG
Second: AGCAGCCC
The “PBM 8-mer E-score” value of the first is higher: 0.101 for the first, -0.222 for the second.

Going from GGGCTCTA to TATGCAGA, the “PBM 8-mer E-score” value rises from -0.197 to 0.119.

Going from CATTAAGA to GTAAGTGA, the “PBM 8-mer E-score” value falls from 0.255 to 0.118.

Going from CGATATGA to ACTTGCTA, the “PBM 8-mer E-score” value rises from 0.0112 to 0.182.

Going from ACAGGTTC to AAGTAGGA, the “PBM 8-mer E-score” value rises from -0.208 to 0.000117.

First: CGATACCG
Second: CCCATCGA
The “PBM 8-mer E-score” value of the first is higher: -0.086 for the first, -0.102 for the second.

Compared with AAGGTCCC, ACGGTAAC is higher in “PBM 8-mer E-score” value: -0.342 for the first, -0.0728 for the second.

First: ATCCGGGA
Second: GCTCTGAA
The “PBM 8-mer E-score” value of the first is lower: -0.128 for the first, -0.0802 for the second.

First: ATAGTCAC
Second: AGTGTCCG
The “PBM 8-mer E-score” value of the first is higher: -0.0846 for the first, -0.142 for the second.

Compared with AGGATATC, CGATTCAA is higher in “PBM 8-mer E-score” value: -0.0693 for the first, -0.0643 for the second.

Compared with ACGAATCT, GCCACAAA is higher in “PBM 8-mer E-score” value: -0.0679 for the first, -0.0396 for the second.

Compared with CAGACCGA, CTTGATCA is higher in “PBM 8-mer E-score” value: -0.176 for the first, -0.0803 for the second.

Compared with GGGCTCAC, ATCACACC is higher in “PBM 8-mer E-score” value: -0.315 for the first, -0.0388 for the second.

First: CATGTGGA
Second: CTCTACAC
The “PBM 8-mer E-score” value of the first is lower: -0.224 for the first, -0.0361 for the second.

Going from ACCAGGTC to AGACGAAC, the “PBM 8-mer E-score” value rises from -0.195 to -0.107.

First: ATTATCAG
Second: AGATGTAC
The “PBM 8-mer E-score” value of the first is higher: 0.354 for the first, 0.0861 for the second.

First: ATTAAATA
Second: ATACAGGC
The “PBM 8-mer E-score” value of the first is higher: 0.421 for the first, 0.0924 for the second.

First: CCTGCAAC
Second: AGGGTAAC
The “PBM 8-mer E-score” value of the first is lower: -0.158 for the first, 0.0337 for the second.

First: CGATGAGA
Second: AGCAGGTA
The “PBM 8-mer E-score” value of the first is lower: -0.14 for the first, -0.0448 for the second.

First: GTATAGAC
Second: CCTATGTA
The “PBM 8-mer E-score” value of the first is lower: 0.0564 for the first, 0.175 for the second.

Compared with GCAGATGA, ACCAAGGC is higher in “PBM 8-mer E-score” value: -0.166 for the first, -0.135 for the second.

Going from CAAACCGG to CGCAAACG, the “PBM 8-mer E-score” value falls from 0.0302 to -0.0969.

Going from CGGCGCTA to CTCGTGAC, the “PBM 8-mer E-score” value falls from -0.183 to -0.262.

First: ACGACCAA
Second: AAATTTCT
The “PBM 8-mer E-score” value of the first is lower: -0.0422 for the first, 0.148 for the second.

Going from CCTATGCA to CACAGAGG, the “PBM 8-mer E-score” value rises from -0.113 to -0.0767.

Compared with GGACCTAC, ACACTTCG is higher in “PBM 8-mer E-score” value: -0.156 for the first, 0.0727 for the second.

First: CCTGGCCG
Second: GCTTGGAA
The “PBM 8-mer E-score” value of the first is lower: -0.209 for the first, 0.0318 for the second.

Compared with AGGTAATG, AATTTAAA is higher in “PBM 8-mer E-score” value: -0.0373 for the first, 0.443 for the second.

Compared with CAACGGTC, AGAGGCGA is higher in “PBM 8-mer E-score” value: -0.201 for the first, -0.142 for the second.

Compared with ACACGTAC, GAGCAATC is lower in “PBM 8-mer E-score” value: -0.0933 for the first, -0.165 for the second.

First: GGAGGCCA
Second: ACCTTCTA
The “PBM 8-mer E-score” value of the first is higher: -0.145 for the first, -0.175 for the second.

First: GCCCCATA
Second: AGAGGCAA
The “PBM 8-mer E-score” value of the first is higher: -0.0208 for the first, -0.165 for the second.

Going from CCAACAGA to GCTAGGAA, the “PBM 8-mer E-score” value falls from -0.0305 to -0.167.

First: CCTACGCG
Second: AGTGCTCG
The “PBM 8-mer E-score” value of the first is lower: -0.159 for the first, -0.127 for the second.

Going from CGGGTTTA to AGCGGGGA, the “PBM 8-mer E-score” value falls from 0.15 to -0.0985.

Going from ACACCGCT to CATTCTAG, the “PBM 8-mer E-score” value rises from -0.0267 to 0.135.

Going from ATCTCGAG to GGGCTAAA, the “PBM 8-mer E-score” value rises from -0.0243 to 0.0916.

Going from CACCTACC to CAGAAAAA, the “PBM 8-mer E-score” value rises from -0.238 to -0.0701.

Going from ATATGGTG to GCTTCCGA, the “PBM 8-mer E-score” value falls from 0.226 to -0.116.

Going from CTCTGTAA to ACCCCCAG, the “PBM 8-mer E-score” value falls from -0.0285 to -0.264.

First: GTGAATTA
Second: GACCAGTA
The “PBM 8-mer E-score” value of the first is higher: 0.264 for the first, -0.108 for the second.

Going from CCAACTTC to ACAGAGGT, the “PBM 8-mer E-score” value falls from 0.232 to -0.141.

Going from CTTAGAGC to AGCTTCCA, the “PBM 8-mer E-score” value rises from -0.22 to -0.151.

Going from ACAGGCCT to CGTAACAC, the “PBM 8-mer E-score” value rises from -0.178 to 0.0804.

First: CGTTGAAC
Second: GGGTGGTA
The “PBM 8-mer E-score” value of the first is higher: 0.0146 for the first, -0.157 for the second.

Compared with AGCGATAA, TCTCGCCA is lower in “PBM 8-mer E-score” value: -0.0184 for the first, -0.251 for the second.

Compared with CCACACGC, GACCACGC is lower in “PBM 8-mer E-score” value: -0.0967 for the first, -0.0979 for the second.

First: CTGGTAGA
Second: CGTGCTAC
The “PBM 8-mer E-score” value of the first is lower: -0.0635 for the first, -0.00682 for the second.

Compared with ACCTGGTC, CGTTGTTC is higher in “PBM 8-mer E-score” value: -0.187 for the first, 0.108 for the second.

Going from CAAGTAAA to CGGGGTAA, the “PBM 8-mer E-score” value falls from 0.245 to -0.0262.

Compared with CATTCGGA, CCATCCAA is higher in “PBM 8-mer E-score” value: -0.0283 for the first, -0.0159 for the second.

Going from ACAATTTC to ATCTGCCG, the “PBM 8-mer E-score” value falls from 0.19 to -0.0663.

Going from AGCCCGCG to ATTTTTTA, the “PBM 8-mer E-score” value rises from -0.335 to 0.157.

Compared with AATGTATG, GGGAAACA is lower in “PBM 8-mer E-score” value: 0.286 for the first, 0.102 for the second.

First: CCGAACGA
Second: GACCGGAA
The “PBM 8-mer E-score” value of the first is lower: -0.246 for the first, 0.0217 for the second.

First: CATCCATG
Second: GATCGCCA
The “PBM 8-mer E-score” value of the first is lower: -0.0436 for the first, -0.0416 for the second.

Going from TGTCGGAA to AAAGCGTG, the “PBM 8-mer E-score” value falls from 0.0192 to -0.15.

First: AGGGCGAA
Second: CAAACGAC
The “PBM 8-mer E-score” value of the first is lower: -0.147 for the first, 0.0654 for the second.

Going from CCAGCCCA to CCTGAGGC, the “PBM 8-mer E-score” value rises from -0.258 to -0.235.

Going from GCGTGTCA to GCCCGGGC, the “PBM 8-mer E-score” value falls from -0.108 to -0.259.

Going from ACTCCAGA to CTTGAAAC, the “PBM 8-mer E-score” value falls from -0.0377 to -0.0601.

Compared with CACTCTTA, GACACCTC is lower in “PBM 8-mer E-score” value: 0.116 for the first, -0.252 for the second.

First: ATGCGCAC
Second: CTTCGACA
The “PBM 8-mer E-score” value of the first is higher: -0.0214 for the first, -0.0699 for the second.

Going from AGAACGAT to ACTAGTAG, the “PBM 8-mer E-score” value rises from -0.115 to 0.0918.

First: ACACTCTA
Second: ATCGTACA
The “PBM 8-mer E-score” value of the first is higher: 0.139 for the first, 0.0903 for the second.

Compared with AGGTCTCA, CATCCTAG is higher in “PBM 8-mer E-score” value: -0.352 for the first, -0.149 for the second.

First: AGGAAGAG
Second: CGGAATAC
The “PBM 8-mer E-score” value of the first is lower: -0.188 for the first, 0.0866 for the second.

Compared with GAGAGTGA, AAATGTCA is higher in “PBM 8-mer E-score” value: -0.102 for the first, 0.108 for the second.

Compared with ACCCGTCT, ACGGAGAG is lower in “PBM 8-mer E-score” value: -0.123 for the first, -0.191 for the second.

Going from TCCTCACA to TACTAAAA, the “PBM 8-mer E-score” value rises from 0.017 to 0.335.

Going from CCAAGGCG to ATAAGTAC, the “PBM 8-mer E-score” value rises from -0.258 to 0.305.

First: ACAGAGGC
Second: GACACCGC
The “PBM 8-mer E-score” value of the first is higher: -0.128 for the first, -0.2 for the second.
